From the supplement of paper PMC10126150
Values marked as one replicate rest on one cluster of the flow cell; about a third of the high ones do not repeat.

Test system: ATP
Assay: switch fluorescence ratio, 500 uM ATP over buffer (Cy3 cluster intensity, sum of 5 cycles each) (fold (ratio)); higher = stronger signal-on switching upon ATP binding; sequences stand for … in TCGTCGGCAGCGTCAGATGTGTATAAGAGACAGTTTTTTTTTTTTTTTTTTTTTTTTT…TC
Details: aptamer strand: ATP DNA aptamer (quencher-CACCTGGGGGAGTATTGCGGAGGAAGG + anchor), 100 nM annealed; ATP concentration: 500 uM; one replicate
Method in brief: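 Switching-strand clusters labelled with Cy3 on a modified Illumina MiSeq flow-cell were annealed to 100 nM quencher-labelled ATP aptamer, imaged in selection buffer, and re-imaged after 15 min with 500 uM ATP at 22 °C. This was done over five cycles with NaOH stripping and re-annealing in between. The fluorescence ratio is summed target-cycle over summed buffer-cycle Cy3 intensity per cluster, averaged per switch-domain sequence, excluding clusters outside 100-1000 RFU.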
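Also: ATP exposure 15 min at 22 °C before imaging.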

Sequence	switch fluorescence ratio
GGTGTAGCTG	0.981
GAATTAGCAT	1
AATGGTGTTG	1.01
ACGGGAATGT	1
GGTGATAC	1.54
ACGAGGGCTG	1.01
TACGTTCTCA	0.977
GGTGAACTGA	1.01
TTTCCACTTC	1.04
AGGGGTAGAA	0.972
CCTGACTTGC	1.22
CACTGCTCAA	1.06
GAGAAGCACT	1.02
TCGTAAGTTT	0.966
CGTGACGGAA	1
AGTTGGTTTA	1.04
AAACGTCCCA	1.01
GGGAGCTTTC	1.05
GCGAAGCAAA	1.05
CACCCCGGAC	1.26
GCTGGATGGA	0.983
CCTCGTTAGG	1.02
GCGGCAACAA	1.01
AGGTATAGGC	1.02
GGACGGGTTG	0.976
TGTTGACGAA	1.01

Sequence	switch fluorescence ratio
GGGAGCGATG	1.07
TCCTTATTCT	0.967
CGGGTGGGGT	0.999
AGGTTTGTGC	0.94
CCGCTCTGCT	1.38
ATTTGTTTCG	0.995
AATTGAATTC	1.02
GTAGGTACGA	0.991
ATGCCGCAT	0.988
GTTTGGGAAG	1
CCCACTTGCA	1.07
TAATGTAACT	0.994
TCATATCGCC	1
AAACGATTTG	0.998
AATCTAGGCG	1.08
AGTTCGTTGG	0.999
CTTCCGGAAG	1.03
CATATCGATT	1.02
TGTGCTTGAC	1.02
GGTCACGGTC	1.01
TATGACGTTT	1.04
CCTCGCCTGA	1.63
ACGGCACGGA	1.07
TAGATATGTG	0.977
AGTTTATGGA	0.987
GGCATAGCGT	0.992

Sequence	switch fluorescence ratio
TTTACCGGCA	0.955
CTACACCCCC	1.81
AGTTGGTCTT	1.01
CTGCGGAGCG	1.01
TCTGTTGTAA	1.01
TTGGCGTCCT	1.04
GTTTAAGAT	1.16
GCTCTGGGCA	1
GTTGTTCATC	0.909
ATTGTGCCCT	0.988
TAGGTAGGAT	0.976
CACTGGACAT	1.18
TTGGATTAAT	1.01
CGTTAACTT	1.05
CAGTGTTGCG	1
AAGCTGCCTT	1.06
TTCATAAAGG	1.06
TGTTTATTT	0.999
TCATATGAGG	0.999
AAACGCGGCG	0.972
ACAAGATCCT	1.01
TGCATTCCGG	1.1
TTGATGAGC	0.964
TTTCAGCGTC	1.11
GTGAAAGATA	0.976
TCGTAGCTCA	1.49

Sequence	switch fluorescence ratio
ACTTAGAAGC	0.97
GATTCGTCAT	1
TACATGGGG	1.03
CATCCTGCA	2.52
TTTAGGGCCA	1.03
ATATACATGA	1.09
TTTCCAATCA	1.14
GCTAAATTTG	1.02
ACCCGCTTGT	1.18
TCAAATGTAG	0.985
ATATTTTTAC	1.08
TTTGTGTCGG	0.97
TCGATTTCTC	0.965
TGGTGCAAGC	1.05
TAGTCGGACA	0.973
ACAAGTGTCA	0.988
CCAGTGTAAG	0.989
GTCGTCTGCT	1.06
AGAACCTAGA	1
AAGAGAACAC	1.04
TGGCTAAAGT	1.03
TTCCGCACTA	1.47
TGTGCATGCG	0.971
GCGTCTTTTC	1
AGACCTTGTT	1.02
TGCAGATAAT	1.02

Sequence	switch fluorescence ratio
ATCATATGA	1.01
CTACCGTTTA	1.1
AAGATAATG	0.957
CTGCTTGGCT	1
ACTCGGCCA	1.42
TACCACACCA	1.37
GTTAGTGTAC	1.16
ACGCCGGTCG	1.04
GAAATCAGTA	0.954
ACAACTCAAT	1.09
GGGCTCAAAT	1
AACAACTATA	1.06
AGTATCGTTT	1.01
CTTATTCGA	1.02
CTCCCTTAGT	1.13
TATATTAATT	1.07
GCTCTTCTGA	1.13
CTCTTGTTGT	0.975
AGAATCCAAT	1.01
AATGACAGCG	1.05
CCCGAAGAGT	1.8
GGGTTAGTCG	1.2
AAGGCGGCTG	0.984
GAGCCGTCCC	1.04
GCCAGGGGCT	1.01
TTGCTCCGCC	1.02

Sequence	switch fluorescence ratio
TTAGTCTGCT	0.949
GCGGGAACG	0.989
CACGCTCAGA	1.04
CGCATAGGCG	1.01
TTTTTTTCG	0.976
CAAAAAACGC	1.01
GTGCTTTAGG	0.935
AGCCACTTCC	2.35
GCGGAACCT	1.95
AGGTTAGGTC	0.993
CGGCAGGTCA	1.02
ACTCGTACGG	1.08
AGGACCAACA	1.07
CAAATGGCT	0.993
ACGTACACCT	1.47
CAGACCGCAT	4.68
TAACCACGTA	1.14
TCTGTATACG	0.985
GTAAGGATTC	0.991
TGGTAGTGCC	1.05
AAGGTTTGGA	0.972
CGTAGATTCA	1.15
GCTGTGGAG	1.04
AACTCTGCTG	1.07
GAGGAGAGTG	0.992
TATAATTAAA	1.07

Sequence	switch fluorescence ratio
CCGTGGTGGT	1.06
TGTGTCAAAA	1.02
GGGTAACACT	1.01
TTTGACCTTT	0.979
TAGGGCGA	0.968
GTAAGTACGT	1.24
CCCGCGCGTG	1.04
AGAACCTTTT	1.07
AAGACTCAAT	1.04
CCATTTTCAG	0.999
GCTGTAGTAG	1.03
AACGGATTAC	2.56
TTAAATTTA	1.04
TCATTATGCG	0.961
ATACAACTAT	1.02
GCTACACCTA	1.1
GTTTAAGGAA	0.999
GTATGGCATG	0.998
CGGTCATGAA	1.01
ATTTCTTGCT	0.949
GATGCCAGGC	0.987
ATTTGGTCT	0.993
ATTTCGTTCT	0.973
TAGAAAGGTG	1.22
GCTGCGAGCT	1.05
AGACTTTAC	1.16

Sequence	switch fluorescence ratio
TCGGTTATGG	0.983
CTGTATGAGA	1.01
ATAGTTTCAG	1.01
GGGGGGAAA	1.03
ATGTAGGTT	0.993
TGATTGTG	1.01
ACAGGATATT	0.986
CGTTCAGAGA	0.984
ATAATTAGTG	1.01
TATTTCTGGG	0.956
CTGATGCAAA	1.66
AGGCCGATAA	1.02
TGCTATTTGA	0.962
GTCAAGAAGA	0.995
TGGCATTGAT	1.02
TTGTTATCTT	1
GCTTTTGATA	0.975
GGTACTTCAT	1.03
CAGCTAAGTT	0.968
